# These are yes or no findings as the source states them, for the method shown.
# Protein sequences, listed by entry. Tags and fused reporters are not part of them.
# UniProt Q8N4Y2: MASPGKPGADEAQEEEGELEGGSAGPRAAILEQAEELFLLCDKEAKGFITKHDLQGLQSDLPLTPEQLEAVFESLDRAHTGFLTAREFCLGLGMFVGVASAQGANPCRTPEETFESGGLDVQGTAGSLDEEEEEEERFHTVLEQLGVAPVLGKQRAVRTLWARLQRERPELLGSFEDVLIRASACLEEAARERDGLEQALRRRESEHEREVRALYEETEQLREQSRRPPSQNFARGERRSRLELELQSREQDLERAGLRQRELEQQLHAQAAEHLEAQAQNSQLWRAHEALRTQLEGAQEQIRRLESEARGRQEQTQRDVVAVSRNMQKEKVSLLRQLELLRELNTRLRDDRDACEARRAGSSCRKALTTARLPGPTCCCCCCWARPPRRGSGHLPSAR
# What was measured:
# Assay in all cases: peptide or protein array; HuProt Human Proteome Microarray v2.0, full-length human proteins spotted in duplicate; V5-tagged TRPV4 protein in solution at 1 μM, 1 h at 4 °C, 150 mM NaCl, 2.7 mM KCl, 25 mM Trizma base, 0.05% Tween-20, pH 7.4; detected with Alexa Fluor 647 anti-V5; hit: z-score >= 2 (N terminus: both of 2 slides; ARD constructs: at least 2 of 3 slides); both purified
# [1] = biological target: Short coiled-coil protein (human) (UniProt Q9UIL1)
# [2] = biological target: EF-hand calcium-binding domain-containing protein 4A (human) (UniProt Q8N4Y2)
# [3] = biological target: T1, RAB6-interacting golgin (human) (UniProt Q5T7V8)
# T1 sequence: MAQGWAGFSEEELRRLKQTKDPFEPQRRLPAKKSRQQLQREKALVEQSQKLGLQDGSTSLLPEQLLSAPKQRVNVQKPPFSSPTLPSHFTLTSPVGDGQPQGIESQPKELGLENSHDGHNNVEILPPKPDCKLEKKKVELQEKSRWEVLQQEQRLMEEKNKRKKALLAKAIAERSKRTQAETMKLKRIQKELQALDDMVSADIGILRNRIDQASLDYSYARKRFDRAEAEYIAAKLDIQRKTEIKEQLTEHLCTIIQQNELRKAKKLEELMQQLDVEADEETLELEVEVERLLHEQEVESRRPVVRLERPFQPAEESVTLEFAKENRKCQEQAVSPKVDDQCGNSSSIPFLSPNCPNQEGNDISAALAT
# [4] = biological target: T2, SH3 domain-containing protein 19 (human) (UniProt Q5HYK7)
# T2 sequence: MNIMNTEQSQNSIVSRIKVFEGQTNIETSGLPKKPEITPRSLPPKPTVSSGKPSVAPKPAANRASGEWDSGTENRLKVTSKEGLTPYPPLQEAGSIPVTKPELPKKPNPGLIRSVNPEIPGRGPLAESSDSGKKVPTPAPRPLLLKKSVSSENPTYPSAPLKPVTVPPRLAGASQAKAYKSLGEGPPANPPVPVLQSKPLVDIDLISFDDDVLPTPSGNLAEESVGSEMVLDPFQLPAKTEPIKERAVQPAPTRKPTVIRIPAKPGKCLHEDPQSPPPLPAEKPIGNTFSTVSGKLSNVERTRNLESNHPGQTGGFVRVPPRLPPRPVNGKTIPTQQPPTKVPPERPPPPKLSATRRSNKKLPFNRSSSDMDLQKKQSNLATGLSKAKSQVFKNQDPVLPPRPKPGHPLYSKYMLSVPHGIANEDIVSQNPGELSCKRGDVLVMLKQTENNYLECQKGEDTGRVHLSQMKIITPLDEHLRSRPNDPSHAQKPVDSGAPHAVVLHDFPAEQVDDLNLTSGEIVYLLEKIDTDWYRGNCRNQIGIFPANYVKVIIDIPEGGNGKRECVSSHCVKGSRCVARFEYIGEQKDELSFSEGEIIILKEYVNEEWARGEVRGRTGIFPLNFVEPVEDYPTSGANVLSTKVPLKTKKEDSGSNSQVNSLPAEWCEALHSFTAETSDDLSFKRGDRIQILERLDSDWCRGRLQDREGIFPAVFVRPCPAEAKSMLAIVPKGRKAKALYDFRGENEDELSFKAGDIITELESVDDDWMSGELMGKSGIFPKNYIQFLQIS
binding [1],binding [2],binding [3],binding [4],Substance
no binding (tested: 1 μM),no binding (tested: 1 μM),no binding (tested: 1 μM),no binding (tested: 1 μM),TRPV4^R269C-ARD (from UniProt Q9HBA0 149-397) (domain or fragment)
no binding (tested: 1 μM),no binding (tested: 1 μM),no binding (tested: 1 μM),no binding (tested: 1 μM),TRPV4^R315W-ARD (from UniProt Q9HBA0 149-397) (domain or fragment)
